Data taken from PubChem BioAssay AID1745853 (National Center for Advancing Translational Sciences (NCATS), 2022).
Several values for one entry are separate records, joined by “and”; a condition that tells them apart may be missing. Identical values can stand only once. This is one part of the list. Shown are side measurements of this screen, not its main read-out; they come without a call.

Key:
Test in all cases: Primary Screen for Target Class Profiling of Small Molecule Inhibitors of Methyltransferases
[1] = target: Glycine N-methyltransferase (Homo sapiens) (UniProt Q14749); details: purified enzyme, MTase-Glo SAH luminescence; measured here: GNMT inhibition; at 40 µM; stronger effect = lower value
How it was run: (§1)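 Each enzyme was reacted with SAM and its substrate, with compounds tested once at 40 uM; SAH formed was read by MTase-Glo luminescence.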

[2] = target: Guanidinoacetate N-methyltransferase (Homo sapiens) (UniProt Q14353); details: purified enzyme, MTase-Glo SAH luminescence; measured here: GAMT inhibition; at 40 µM; stronger effect = lower value
How it was run: as §1

[3] = target: Histamine N-methyltransferase (Homo sapiens) (UniProt P50135); details: purified enzyme, MTase-Glo SAH luminescence; measured here: HNMT inhibition; at 40 µM; stronger effect = lower value
How it was run: as §1

[4] = target: Nicotinamide N-methyltransferase (Homo sapiens) (UniProt P40261); details: purified enzyme, MTase-Glo SAH luminescence; measured here: NNMT inhibition; at 40 µM; stronger effect = lower value
How it was run: as §1

[5] = target: Phenylethanolamine N-methyltransferase (Homo sapiens) (UniProt P11086); details: purified enzyme, MTase-Glo SAH luminescence; measured here: PNMT inhibition; at 40 µM; stronger effect = lower value
How it was run: as §1
On the % scale 0 is the no-effect control and ±100 the full control effect.

SMILES | activity change, negative = inhibition [1] | activity change, negative = inhibition [2] [%] | activity change, negative = inhibition [3] | activity change, negative = inhibition [4] | activity change, negative = inhibition [5]
CN(C)CCN1C(=O)c2ccc(-c3ccco3)n2CC1(C)C(=O)NC1CCCCCCC1 (stereo not given) | 1.43% | 1.79 | 4.45% | 3.24% | 0.454%
CC(CN1C(=O)c2nc3ccccc3n2CC1(C)C(=O)NC1CCCC1)c1ccccc1 (stereo not given) | 4.75% | 0 | 4.5% | 0.842% | -1.71%
Cc1ccc(NC(=O)c2cc3n(n2)CC(C)(C(=O)NC2CCCCCC2)N(C)C3=O)c(C)c1 (stereo not given) | -0.394% | 1.36 | 1.49% | 0.199% | -1.2%
COC(=O)C12CCC(C)C(C)C1C1=CCC3C4(C)CCC(OC(C)=O)C(C)(C)C4CCC3(C)C1(C)CC2 (stereo not given) | -0.014% | 2.78 | 2.61% | -10.1% | 4.71%
COc1ccc(-c2noc(CC3CCN(C(=O)c4cc(F)ccc4F)CC3)n2)cc1 | -8.64% | -3.78 | 0.697% | -4.54% | -4.64%
Cc1ccc(-c2n[nH]n3c2nc(=O)c2ccc(C(=O)NCCc4ccc(Cl)cc4)cc23)cc1 | -1.58% | 0 | 8.3% | 3.84% | 2.76%
O=C(c1cc(F)ccc1F)N1CC(c2nc(CCc3ccccc3)no2)C1 | 0.46% | 1.69 | 2.16% | -0.531% | -3.23%
COc1ncc(Nc2ncc([C@H](C)N3CCN(S(C)(=O)=O)CC3)cc2-c2nc(C)nc(N)n2)cc1F | -17.7% | -13.2 | -8.27% | -22.2% | -24.8%
Clc1ccc(-c2nnn3c2nc(NCCc2c[nH]c4ccccc24)c2ccccc23)cc1 | -1.98% | 5.39 | 0.844% | -1.47% | -4.75%
O=c1[nH]c2ccc(S(=O)(=O)N(CCO)CCO)cc2[nH]1 | 3.94% | 0 | 7.49% | 7.51% | -1.72%
CCOC(=O)c1cc2n(n1)CC(C)(C(=O)NCc1ccccc1OC)N(c1ccc(CC)cc1)C2=O (stereo not given) | 6.82% | 0 | 11.4% | 6.86% | 5.77%
COCCN1C(=O)c2cc3ccc(OC)cc3n2CC1(C)C(=O)NC1CCCCCC1 (stereo not given) | 1.58% | 0 | 0.478% | 1.25% | -1.33%
COc1cccc(CSc2nnc3n(CCc4ccccc4)c(=O)c4ccccc4n23)c1 | -4.7% | -0.931 | 4.61% | -8.29% | -1.23%
CCOC(=O)Nc1ccc(NCc2ccc(F)cc2)nc1N | -78% | -67.1 | -12.7% | -24.6% | -13%
COc1ccccc1CNC(=O)C1c2c(n(C)c3ccccc23)SCC(=O)N1c1cc(C)cc(C)c1 (stereo not given) | 6.83% | 0.879 | 0.533% | 2.52% | 5.43%
CC1(C(=O)NC2CCCC2)Cn2c(ccc2-c2ccco2)C(=O)N1c1ccc2c(c1)OCO2 (stereo not given) | -22.6% | -12.1 | -5.84% | -15.3% | -13.4%
Cc1cc(C)cc(NC(=O)CSc2nnc3n(CCc4ccccc4)c(=O)c4ccccc4n23)c1 | 7.54% | 1.13 | 12.7% | 6.43% | 7.2%
N#Cc1cccc(C(=O)N2CCCOCCNC(=O)CC2)c1 | -3.2% | -13.8 | -2.56% | -6.56% | -2.2%
C[C@@H]1C[C@@H]2O[C@H]2/C=C\C=C\C(=O)Cc2c(Cl)c(O)cc(O)c2C(=O)O1 | -9.16% |  | 7.71% |  | 
C[C@@H]1C(=O)O[C@H]2CC34[C@H]5C[C@@H](C(C)(C)C)C36[C@@H](OC(=O)[C@@H]6O)OC4(C(=O)O5)[C@]21O (stereo not given in full) | -2.9% | -11 | 7.18% | -20.9% | 0.568%

SMILES | activity change, negative = inhibition [1] | activity change, negative = inhibition [2] [%] | activity change, negative = inhibition [3] | activity change, negative = inhibition [4] | activity change, negative = inhibition [5]
COc1ccc(S(=O)(=O)Nc2ccc(C)n(CC(=O)O)c2=O)cc1 | -5.58% | -11.5 | -4.21% | -12.6% | -9.31%
C=CCCC(CN1CCCOCC1)Oc1nccc(N(C)CC)n1 (stereo not given) | -3.11% | -1.91 | -1.19% | -7.99% | 0.96%
CCCn1c(=O)c2ccccc2n2c(=O)n(CC(=O)Nc3ccc(C)c(C)c3)nc12 | 7.5% | 4.31 | 11.1% | 4.4% | 6.11%
Cn1cncc1C(N)(c1ccc(Cl)cc1)c1ccc2c(c1)c(-c1cccc(Cl)c1)cc(=O)n2C (stereo not given) | -43.9% | -5.24 | -43.3% | -75.7% | -29.4%
COC(=O)c1cc2n(n1)CC(C)(C(=O)NC1CCC(C)CC1)N(c1ccc(Cl)cc1C)C2=O (stereo not given) | 8.06% | 0.013 | 10% | 6.39% | 5.42%
CC1(C(=O)NC2CCCC2)Cn2c(cc3sccc32)C(=O)N1CCc1ccccc1 (stereo not given) | -8.3% | 0.862 | -15.9% | -10.9% | -9.29%
O=C1O[C@@H]2CN(c3ncccn3)C[C@@H]2N1CCc1ccc(F)cc1 | -1.32% | 2.46 | 1.59% | -0.714% | 16.6%
O=C(NO)c1ccc(CC(=O)N(CCO)c2ccccc2)cc1 | 1.54% and -11% | 6.42 | 10.7% and 1.24% | -6.55% and 4.01% | 4.46% and 38.5%
COc1ccc(S(=O)(=O)N2CCCC(c3nnnn3-c3ccccc3)C2)cc1 (stereo not given) | -1.15% | 1.19 | 4.66% | -2.23% | 4.84%
C=C1C(=O)O[C@@H]2C[C@]3(C)[C@@H](CCC(C)=O)[C@@H]3C[C@H]12 | -0.678% | -2.82 | 1.9% | -12% | -9.28%
COc1ccc(CNC(=O)c2cc3n(n2)CC(C)(C(=O)NC2CCCC2)N(C)C3=O)cc1OC (stereo not given) | -5.42% | 0 | 3.98% | -4.67% | -5.65%
CC1CCCC(NC(=O)C2(C)Cn3c(cc4occc43)C(=O)N2CCc2ccc(Cl)cc2)C1C (stereo not given) | -9.36% | 3.3 | -7.57% | -4.55% | -7.5%
Cc1ccccc1CNC(=O)C1(C)Cc2ccccc2C(=O)N1Cc1cccc(C(F)(F)F)c1 (stereo not given) | 13.4% | 3.58 | 12.9% | 4.34% | 7.98%
NS(=O)(=O)c1cccc(N=Cc2c(O)[nH]c3ccccc23)c1 |  | -8.09 |  | -20.8% | -2.06%
CCc1cccc(NS(=O)(=O)c2ccc3[nH]c4c(c3c2)CCCC4)c1 | 4.49% | 2.99 | 3.19% | -8.09% | 2.24%
COc1cc(Oc2ccnc3cc(OC)c(OC)cc23)ccc1NC(=O)NC(C)c1nccs1 (stereo not given) | -10.6% | -9.12 | -27.5% | -42.1% | -1.3%
CC1(C(=O)NC2CCCCC2)Cn2c(ccc2-c2ccco2)C(=O)N1CCc1ccco1 (stereo not given) | -0.321% | -0.985 | 6.86% | -1.13% | 4.88%
CCNC(=O)[C@@H]1CCCN1C(=O)[C@H](CCCN=C(N)N)NC(=O)[C@H](CC(C)C)NC(=O)[C@@H](C)NC(=O)[C@H](Cc1ccc(O)cc1)NC(=O)[C@H](CO)NC(=O)[C@H](Cc1c[nH]c2ccccc12)NC(=O)[C@H](Cc1cnc[nH]1)NC(=O)[C@@H]1CCC(=O)N1 | -0.322% | -3.51 | 7.3% | -8.53% | 2.42%
COCCNC(=O)NC[C@H]1O[C@@H]2C[C@@H](CC(=O)N3CCC(F)(F)C3)O[C@@H]2[C@@H]1O | -0.04% | 1.41 | 0.218% | 1.04% | 1.94%
O=C(O)/C=C/c1cnc[nH]1 | -0.036% | 4.87 | -0.021% | -3.7% | 3.68%

SMILES | activity change, negative = inhibition [1] | activity change, negative = inhibition [2] [%] | activity change, negative = inhibition [3] | activity change, negative = inhibition [4] | activity change, negative = inhibition [5]
Cc1cc(O)c(-c2ccc([C@@H](C)CN(C)C)cc2)c2c1[nH]c(=O)c1sccc12 | -45.1% | -28.8 | -93.9% | -82.5% | -23.5%
COc1ccc(-c2nnc(C[C@@H]3C[C@@H](C(C)C)[C@H](CNCc4ccncc4)C=C3C)o2)cc1 | -10.7% | -6.08 | -13.1% | -24.2% | -10.3%
Cn1c(=O)c2ccnn2c2ccc(C(=O)NCC3CCN(Cc4ccccc4F)CC3)cc21 | -12.4% | -8.03 | -21.6% | -57.9% | -4.56%
CCCn1c(=O)c2ccc(C(=O)NC3CCCC3)cc2n2c(=O)n(CC(=O)Nc3ccc(F)cc3)nc12 | 3.51% | 0.47 | 6.54% | 6.41% | 5.87%
O=C(C1CCCC1)N1CCC2(CC1)CC(c1ccccc1)=NO2 | -6.6% | -5.61 | -0.722% | -9.6% | 5.1%
CCOCCCNC(=O)C1c2c(n(C)c3ccccc23)SCC(=O)N1Cc1ccc(OC)cc1 (stereo not given) | 10.5% | 1.15 | 4.66% | 3.02% | 6.15%
O=C1CC[C@H](C(=O)N2CCCCC2)N1 | 6.06% | 5.76 | 9.48% | -3.81% | 5.83%
NCc1c[nH]c(=S)n1C1CCc2c(F)cc(F)cc2C1 (stereo not given) | 3.48% | 2.59 | -1.7% | -18.8% | -7.66%
CCCN1C(=O)c2c(C(=O)NCCc3ccccc3)ncn2CC1(C)C(=O)NCc1ccc(C)cc1 (stereo not given) | -1.44% | 0 | 5.85% | 2.13% | 4.53%
CC(C)CCn1c(=O)c2ccccc2n2c(=O)n(Cc3c(F)cccc3Cl)nc12 | 1.59% | 0 | 8.39% | -0.223% | 4.11%
O=C(CCn1ccc2cc(S(=O)(=O)N3CCCC3)ccc21)NCCc1cccs1 | 2.31% | 0.002 | 3.26% | 2.23% | -0.389%
CCC(=O)N1CCc2cc(Br)c(S(=O)(=O)NCCN3CCN(c4ccccc4F)CC3)cc21 | -11.8% | 2.29 | -6.74% | -11.6% | -11.5%
Cc1cccc2c1NC(=O)C2(c1ccc(O)cc1)c1ccc(O)cc1 | -14.3% | -16.5 | -10.2% | -23% | -18.7%
CCOC(=O)N1CCC(N2CCC[C@@H](NC(=O)c3ccccc3C)C2)CC1 | 4.84% | 0.647 | 10.6% | -10.7% | -1.02%
CCC(=O)N1C[C@@H]2CCCN3CCC[C@@H]([C@H]23)[C@H]1CCCC(=O)NC | -3.96% | -2.51 | -5.05% | -5.96% | -15.6%
COc1cncc(Nc2ncc(-c3ccccc3OC)c3c2OCC3)c1 | -52.1% | -35.2 | -20.1% | -33.1% | -51.9%
Cc1cnc(C2CC2)n1C1CCCN(C(=O)c2ccoc2)C1 (stereo not given) | -7.12% | -9.13 | -28.1% | -13% | -2.01%
C[C@@H]1O[C@@H](O[C@@H]2\C=C/C=C\C=C/C=C\C[C@H](C)OC(=O)/C=C\[C@H]3O[C@@H]3C[C@H](O)C[C@]3(O)C[C@@H](O)[C@@H](C(=O)O)[C@H](C2)O3)[C@H](O)[C@H](N)[C@@H]1O | -8.32% | -25.5 | 5.77% | -25.5% | -4.54%
